Source: PMC4336329 (PLoS ONE, 2015)
In all, about 310,000 compounds went through this assay and about 2,200 (0.71%) showed an effect of 50% or more. The effect is printed as a negative number. Some of the results follow.

molecular target: human ether-à-go-go-related gene (hERG) potassium channel (human, UniProt Q12809); assay: primary screen, population patch clamp on CHO cells stably expressing hERG
Sequence (Q12809 whole entry, looked up): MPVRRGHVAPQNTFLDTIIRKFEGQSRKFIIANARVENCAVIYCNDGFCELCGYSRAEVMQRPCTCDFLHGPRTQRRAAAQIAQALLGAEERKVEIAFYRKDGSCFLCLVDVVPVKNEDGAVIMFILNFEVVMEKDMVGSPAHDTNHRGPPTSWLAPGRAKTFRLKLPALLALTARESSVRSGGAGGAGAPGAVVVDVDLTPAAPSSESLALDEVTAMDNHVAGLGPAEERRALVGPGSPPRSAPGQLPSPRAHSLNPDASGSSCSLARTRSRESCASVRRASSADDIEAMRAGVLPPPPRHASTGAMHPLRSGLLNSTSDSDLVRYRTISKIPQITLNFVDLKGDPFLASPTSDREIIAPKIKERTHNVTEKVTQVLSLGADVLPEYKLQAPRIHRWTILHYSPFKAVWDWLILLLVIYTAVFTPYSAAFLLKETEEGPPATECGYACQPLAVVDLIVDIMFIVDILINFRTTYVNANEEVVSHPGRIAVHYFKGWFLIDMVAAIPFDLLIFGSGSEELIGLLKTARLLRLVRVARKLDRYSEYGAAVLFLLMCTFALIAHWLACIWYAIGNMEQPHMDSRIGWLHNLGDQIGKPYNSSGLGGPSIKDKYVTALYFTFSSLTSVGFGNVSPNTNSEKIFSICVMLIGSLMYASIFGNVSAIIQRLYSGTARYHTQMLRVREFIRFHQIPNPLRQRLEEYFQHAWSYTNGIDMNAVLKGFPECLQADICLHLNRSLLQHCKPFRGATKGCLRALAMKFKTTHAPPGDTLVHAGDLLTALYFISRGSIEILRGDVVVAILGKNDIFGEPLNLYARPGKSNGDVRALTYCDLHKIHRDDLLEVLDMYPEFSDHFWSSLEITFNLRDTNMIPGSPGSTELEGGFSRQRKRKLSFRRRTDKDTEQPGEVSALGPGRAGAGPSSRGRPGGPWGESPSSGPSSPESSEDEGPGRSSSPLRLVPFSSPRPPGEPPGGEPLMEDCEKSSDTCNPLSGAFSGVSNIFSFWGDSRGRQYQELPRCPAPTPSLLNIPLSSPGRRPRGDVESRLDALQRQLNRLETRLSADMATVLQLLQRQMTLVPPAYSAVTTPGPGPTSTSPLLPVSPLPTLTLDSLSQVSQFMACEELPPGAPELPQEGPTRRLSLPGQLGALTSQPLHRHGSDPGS

| Compound | hERG current change (%, negative = inhibition) at 1uM |
| --- | --- |
| Cc1cc(C)cc(N2CC34C=CC(O3)C(C(=O)OCC(=O)NCc3ccco3)C4C2=O)c1 (centres unmarked) | -5.92% |
| COc1ccc(CNC(=O)c2cc(-c3cc(C)cc(C)c3O)n[nH]2)cc1 | 12% |
| O=C(CCN(NC(=O)c1ccccc1)C1=NS(=O)(=O)c2ccccc21)NC1CCCCC1 | 12.6% |
| CS(=O)(=O)N(CC(=O)Nc1ccc2c(c1)OCO2)Cc1ccccc1 | 11.2% |
| CC(=O)Nc1ccc(NS(=O)(=O)c2cccc3ccccc23)cc1 | 2.91% |
| O=C(/C=C/c1ccccc1)NC(=S)Nc1cccnc1 | 10.8% |
| COc1ccc(-n2c(CNc3ccc(C)cc3)nnc2SCc2ccccc2)cc1 | 7.59% |
| COc1ccc(CNC(=O)CN(Cc2ccccc2)C(=O)CCC(=O)Nc2ccccn2)cc1 | -25.1% |
| O=[N+]([O-])c1nn(-c2ccc(Cl)cc2)n(O)c1=NCc1ccncc1 | -6.54% |
| O=c1ccc(-c2ccccc2)nn1Cc1ccccc1F | 9.68% |
| Cc1cc(C)c(-n2nnnc2SCC(=O)c2cc3ccccc3o2)c(C)c1 | 8.76% |
| CC(=O)c1c(C)[nH]c(C(=O)Nc2cccc(S(=O)(=O)N(C)C)c2)c1C | 11.8% |
| CN1Cc2c(N3CCOCC3)nc3sc(C(=O)c4ccc(Br)cc4)c(N)c3c2CC1(C)C | 11.1% |
| CCCCn1c(SC(C)C(=O)c2ccc(OC)cc2)nc2cc(S(N)(=O)=O)ccc21 (centres unmarked) | 3% |
| CCC(C)[C@H](NC(=O)[C@H](Cc1ccccc1)n1c(=O)[nH]c2ccccc2c1=O)C(=O)N1CCC(C(=O)O)CC1 (some centres unmarked) | -9.94% |
| O=C(N1CCN(c2ccccc2)CC1)C1(c2cccs2)CCOCC1 | 13% |
| Cc1ccc(Sc2ccc(NC(=O)CCl)cc2)c(C)c1 | 11.3% |
| O=C(COc1c(Br)cc(Br)c2cccnc12)N1CCc2ccccc2C1 | 6.11% |
| O=C(N/N=C/c1ccccn1)C(O)c1ccccc1 (centres unmarked) | 6.88% |
| COc1ccc(C(=O)COc2nc(C)cc(C)c2C#N)cc1 | -2.15% |
| Cc1scc(C(=O)N/N=C/c2ccco2)c1C | 11.1% |
| O=C(NNS(=O)(=O)c1ccccc1)c1ccc(S(=O)(=O)N2CCCCC2)cc1 | -4.63% |
| Cc1ccccc1-n1ncc2c(SCC(=O)NCc3cccs3)ncnc21 | 13.9% |
| CCN(CC)S(=O)(=O)c1ccc(C(=O)/C=C/c2ccc(-c3ccc([N+](=O)[O-])cc3)o2)cc1 | -4.04% |
| COc1ccc(NS(=O)(=O)c2cccc(Cl)c2Cl)cc1S(=O)(=O)N1CCCCC1 | -6.3% |
| Cc1cccc(C)c1NC(=O)CNC(=O)CN1C(=O)NC2(CCc3ccccc32)C1=O (centres unmarked) | 4.07% |
| Oc1c(Br)cc(/C=N/Nc2nncc3ccccc23)cc1Br | 16.1% |

| Compound | hERG current change (%, negative = inhibition) at 1uM |
| --- | --- |
| COc1ccc(CSc2nc(C)cc(=O)[nH]2)cc1 | 5.27% |
| COc1ccc(Cl)cc1NC(=O)Nc1ccc(C(=O)N2CCCC2)cc1 | -1.05% |
| CCOC(=O)c1c(CN2CCOCC2)n(C)c2cc(Br)c(O)c(CN(C)C)c12.Cl | -2.58% |
| CCn1c(=O)c2cc(C(=O)NCCN3CCOCC3)sc2c2ccccc21 | 14% |
| O=C(O)c1cccc(S(=O)(=O)N2CCN(Cc3ccc4c(c3)OCO4)CC2)c1 | 15.6% |
| Cc1ccc2nc(-c3ccccc3)cc(C(=O)N(C)CC(=O)Nc3ccccc3Br)c2c1 | 4.78% |
| O=C(COC(=O)CCc1c[nH]c(=O)[nH]1)Nc1cccc(Cl)c1 | -4.07% |
| Cc1cc(NC(=O)CSc2nnc(-c3c[nH]c4ccccc34)n2-c2ccc(Cl)cc2)no1 | 9.73% |
| CC1Cc2ccccc2N1C(=O)CSc1nnc2c(n1)[nH]c1ccccc12 (centres unmarked) | 6.77% |
| Cc1ccc2c(c1)[C@@H]1CN(C)CC[C@@H]1N2S(=O)(=O)c1ccc(F)cc1.Cl | -3.75% |
| C=Cn1ccnc1P(=S)(c1c(C)nn(-c2ccccc2)c1C)c1nccn1C=C | 4.06% |
| CN(CC(=O)Nc1ccccc1Cl)C(=O)COC(=O)c1cc([N+](=O)[O-])ccc1N1CCOCC1 | -2.37% |
| COc1ccc(N2CCN(c3ccc(NC(=O)C4CCCCC4)cc3C#N)CC2)cc1 | 19.7% |
| CCn1c(SCC(=O)c2ccc(C)cc2)nnc1-c1ccncc1 | 14.1% |
| Nc1c(C(=O)CSc2nccn2-c2cccc(F)c2)c(=O)[nH]c(=O)n1C1CC1 | 14.2% |
| O=C(COC(=O)CNC(=O)c1ccccc1)NC1CCCCC1 | 0.397% |
| CCCOc1cccc(C(=O)N2CCN(C(=O)C3CCCO3)CC2)c1 (centres unmarked) | 12.2% |
| Cc1ccc(NC(=O)c2ccc(S(=O)(=O)NCc3ccco3)cc2)cc1 | 8.89% |
| CCC1CCCCN1C(=O)CCn1ccnc1 (centres unmarked) | 22.9% |
| O=C(O)C(Cc1ccccc1)N1C(=O)/C(=C/c2cccc3ccccc23)SC1=S (centres unmarked) | 7.97% |
| Cc1ccc(-n2nc(C(=O)NCc3ccco3)c3c4ccccc4n(C)c3c2=O)cc1 | 9.53% |
| O/C(=C\Sc1nnc(Cc2ccccc2)o1)c1ccc(F)cc1 | 2.71% |
| N#Cc1c(N)nc(SCC(=O)OCc2ccccc2)c(C#N)c1-c1ccco1 | 8.52% |
| COc1ccc(C2CC(c3ccccc3)=NN2C(=O)COC(=O)COc2ccccc2)cc1 (centres unmarked) | 8.82% |
| O=C(CSc1nnnn1-c1ccc2c(c1)CCC2)Nc1ccc2c(c1)OCCO2 | 9.44% |
| CC(Nc1ccc(N2CCOCC2)cc1)C(=O)N1c2ccccc2CC1C (centres unmarked) | 7.12% |
